Sequences with one replicate were seen in a single cluster, so their values are uncertain.

The data set relates to ATP. Nature of the data set: switch fluorescence ratio, 500 uM ATP over buffer (Cy3 cluster intensity, sum of 5 cycles each) (fold (ratio)); higher = stronger signal-on switching upon ATP binding; sequences stand for … in TCGTCGGCAGCGTCAGATGTGTATAAGAGACAGTTTTTTTTTTTTTTTTTTTTTTTTT…TC. The following applies: aptamer strand: ATP DNA aptamer (quencher-CACCTGGGGGAGTATTGCGGAGGAAGG + anchor), 100 nM annealed; ATP concentration: 500 uM; one replicate. The method, boiled down: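 Exposure to 500 uM ATP lasted 15 min at 22 °C before imaging, and a selection-buffer image was taken beforehand, for Cy3-labelled switching-strand clusters on a modified Illumina MiSeq flow-cell annealed to 100 nM quencher-labelled ATP aptamer. Five buffer/ATP cycles were run with NaOH stripping and re-annealing between them. The fluorescence ratio per cluster is summed target-cycle over summed buffer-cycle Cy3 intensity, averaged per switch-domain sequence. Clusters outside 100-1000 RFU were excluded.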
GGGTTCGACC: the switch fluorescence ratio was 1.01.
For AGGTCGGACG, the switch fluorescence ratio was found to be 0.986.
To CGAGCGTGTA belongs 1.03; to TATAGGCTTA, 0.961.
To TCGGCCGAGG belongs 1.02.
As to GATTGAGGAC, the switch fluorescence ratio was 0.955.
The result for CAAATAACTA reads 0.973.
The result for GAGTTGAGGT reads 0.998.
The result for TTCGTCCCCG reads 0.998.
ACATGAGGAT: the switch fluorescence ratio is 1.05.
The result for TTATACCTAG reads 1.03.
Turning to TGTTGTGATA, the switch fluorescence ratio amounted to 0.941.
The result for CACGGCCTAG reads 0.978; that for TCAATGGGAG, 0.974; that for GGCCCCTGGA, 1.01.
The result for TGGCAGTGCG reads 1.03.
To CGGGCCAGTA belongs 0.983.
Regarding GCGGTACCGA, the switch fluorescence ratio is 1.04.
To CACACCTTCA belongs 2.2.
With CGGGTTGACT, the switch fluorescence ratio came to 1.01.
The result for CTTGCCGGGT reads 1.01; that for ATTTAGTCCT, 1.05.
To ACAATCAATT belongs 0.997; to TCGCCAGGGA, 1.05.
The result for ATGCACGATA reads 1.15; that for AGATACGTC, 1.03; that for CATCGTTTTA, 1.05.
For TCATCGTCGT, the switch fluorescence ratio was 0.975.
As to CTAGGTCTTA, the switch fluorescence ratio was found to be 1.03.
The result for CCAGAGGAGT reads 1.02.
To AAATATTGAT belongs 0.969.
To TATGAGTC belongs 1.01; to GAGATCGGGT, 0.993.
As for GGTGGATGTG, the switch fluorescence ratio is 0.991.
To CGCAGCCGAG belongs 1.13.
To TGAGTTCT belongs 0.976; to ATCGCAGTAA, 1.54; to CGTAGCGGAT, 1.23.
The result for GGCCAGGGCT reads 1.03; that for GGTGATAGCG, 0.915; that for CGATGGATTA, 1.03.
As for CACACGGGCG, the switch fluorescence ratio is 1.14.
For the sequence GATGCGCGGC, the switch fluorescence ratio worked out at 1.02.
In the case of TTCGCCTTCC, the switch fluorescence ratio is 2.67.
To TAAAGGTCCA belongs 1.01; to GGCACGTGGT, 0.993; to CGGGTAGTTC, 1.03.
To TTGATTCTCA belongs 1; to TACGATTAAA, 1.05; to ATCCGCGACG, 1.66.
For GTCTAAAGTC, the switch fluorescence ratio stood at 1.
The result for GAATATAGCG reads 0.953.
To TCGATTTTGC belongs 1.05; to GGGTTCAATG, 1.01.
The result for GCATAAGGCG reads 1.02.
Turning to TGTGTTGACA, the switch fluorescence ratio is 0.947.
The result for GTCTTAACCA reads 1.01.
CTCTCAACCT: the switch fluorescence ratio came out at 1.87.
The result for ACTTCACCTT reads 1.33.
The result for TTGTATCC reads 1.02.
The result for GGAGGTTACA reads 0.951; that for CGGCGTAGGA, 1.17.
Regarding TCCGTAACGT, the switch fluorescence ratio was 1.09.
The result for GGCCTCTGAC reads 1.08; that for ATCACTGCAA, 2.62; that for ACAGTAACAC, 1.1.
The result for TCATTGAGAA reads 0.974; that for ATCCATTTAG, 0.96; that for GTGGGGATCA, 0.985.
As to GTGGCCTTGC, the switch fluorescence ratio stood at 1.11.
The result for TGATTAGTTT reads 1.01; that for GGCAGGTACC, 1.04.
As for CGTTGCGATG, the switch fluorescence ratio came to 0.97.
To CCTGTAGTTA belongs 1.04; to TCTCATTAGC, 0.997.
The result for GCGTCGACCA reads 0.979.
As for TCGTCGTCT, the switch fluorescence ratio amounted to 0.98.
On to CGTCGCTATA, for which the switch fluorescence ratio came out at 1.65.
The result for GACAATTGGA reads 1.05; that for CACTATATCA, 1.05; that for CTTAGCGGAC, 1.42.
As to TTGAGAGTGT, the switch fluorescence ratio is 0.967.
For TACGCAACAG, the switch fluorescence ratio is 2.07.
The result for GCACGCCAGG reads 1.98; that for CTCAGTAA, 1.7; that for ATAGCCTTTT, 1.17.
To TGGGTACGCG belongs 0.989; to GGATGTCGT, 0.948.
To CCATACATAA belongs 1.07; to GCTTCCAGTC, 1.02; to CTTAGGCGAA, 0.963.
For the sequence AACCAGGCCA, the switch fluorescence ratio was 0.997.
To TAATCTGCCA belongs 1.23; to ACCGGACAGC, 1.34; to GATTTCAAAA, 0.913.
To AGCGGTATGG belongs 1.04.
To ATCGTTGAGT belongs 0.981; to GCATAAGGG, 1.05.
With GCATGCAGAC, the switch fluorescence ratio turned out to be 1.06.
To ATAATCATAC belongs 1.06; to CGGGCTAGCT, 1.01.
To GCACATAGAT belongs 1; to ATTATGTTGC, 1.03; to CAGGCCCCGG, 0.996.
To CTTTAACTAC belongs 1.03; to TTTCACAACT, 0.976.
As to TCAAAGGCAG, the switch fluorescence ratio was found to be 0.989.
The result for CACCGACGGG reads 1.13; that for ACCGGAAAAG, 1.03; that for AGGGTGAT, 1.01.
Consider ATTTGCGTTA, for which the switch fluorescence ratio is 1.02.
To GGTTGCTCGA belongs 0.982; to GTGATAGGT, 1.01; to GCGTATCGTG, 0.998.
The result for GTAGTGAGGC reads 1.07; that for AAGATAGCCT, 0.999; that for GATCGAATCT, 1.01.
The result for TGACATGGGA reads 0.949; that for TAAGCTCAC, 1.03; that for CCAATGCAAT, 5.79.

The values above are taken from the supplement of paper PMC10126150.
